# Reference: the supplement of paper PMC3724861
# The list shows a part of the results.
# Tested on: T1, Caupolican (Caup) homeodomain DNA-binding domain
# T1 sequence: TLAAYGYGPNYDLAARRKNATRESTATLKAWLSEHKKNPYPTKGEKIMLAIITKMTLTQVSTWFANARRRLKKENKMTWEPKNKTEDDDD
# Test: PBM E-score (8-mer, recovered from the published 9-mer minima) (E-score (dimensionless, -0.5 to 0.5)); Drosophila protein; higher = stronger relative binding preference, active = 0.31 or more
# Protocol: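 Protein binding microarray (PBM): in vitro transcribed/translated Caupolican (Caup) homeodomain DNA-binding domain (residues 214-303) applied at 100 nM to a universal 8-mer PBM array (Agilent AMADID 015681). The 8-mer enrichment score (E-score, range -0.5 to 0.5) was computed, and each 9-mer score is the minimum E-score of its two constituent 8-mers. The E-score is the same for a 9-mer and its reverse complement; 0.31 is the stated binding threshold.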
row,Sequence,PBM E-score
1,ATCAGGGG,inactive: -0.169
2,GGCACATA,inactive: 0.0691
3,AGAAGGGC,inactive: -0.126
4,GCGCAATA,inactive: -0.0861
5,AGGTCGAG,inactive: -0.107
6,GGAGGCAA,inactive: -0.136
7,CAGCGAAC,inactive: 0.0117
8,GTGTCCCA,inactive: 0.0667
9,AGTTTTTC,inactive: -0.00466
10,CGTGGACC,inactive: -0.247
11,AACGCAGA,inactive: -0.0244
12,ATCGGCTG,inactive: -0.0593
13,CACACACG,inactive: 0.13
14,AGAGATAA,≥ 0.084
15,GGGCTGAA,inactive: -0.13
16,ATCGATTC,inactive: 0.00148
17,CGTTGCCA,inactive: 0.0237
18,CCATTCGA,inactive: -0.012
19,CGTAGAGC,inactive: -0.0605
20,GACGGTGA,inactive: -0.0978
21,ATCGACGG,inactive: -0.105
22,TCAACGCA,inactive: 0.0352
23,GACCCTCC,inactive: -0.196
24,AGAACTAA,inactive: 0.0808
25,GGAACACC,inactive: 0.141

row,Sequence,PBM E-score
1,GCAACCAA,inactive: 0.0429
2,CTTCCCAC,inactive: -0.106
3,TAAGACAA,inactive: 0.229
4,GGCTCTAC,inactive: -0.0932
5,ACGGGTTC,inactive: -0.0477
6,ACCCTAAT,inactive: 0.0435
7,AAGATGTA,inactive: 0.298
8,CATAATTA,inactive: 0.255
9,CTCCGAGC,inactive: -0.124
10,CGGATCAA,inactive: 0.0115
11,CGTCCACA,inactive: -0.0222
12,CTCTCATC,inactive: -0.0791
13,CCCGGATA,inactive: -0.046
14,CCGCCGCA,inactive: -0.22
15,GTCCCATA,inactive: -0.0023
16,CAGGAGGG,inactive: -0.19
17,GGCAAATA,inactive: 0.0378
18,CATCGGGA,inactive: 0.00133
19,ACACCGAC,inactive: 0.0855
20,ATGATTTA,inactive: 0.189
21,TAGTCTGA,inactive: 0.0543
22,AGCGGAGC,inactive: -0.242
23,GTCCGACA,inactive: 0.226
24,GGGCGTTA,inactive: -0.0736
25,CGGACACC,inactive: 0.0686

row,Sequence,PBM E-score
1,GAGCGTGC,inactive: -0.0861
2,ATCGCAGG,≥ 0.0242
3,AGCAGATC,≥ 0.102
4,ATATTTGC,inactive: 0.0765
5,ATCTGTTC,inactive: 0.149
6,CTCGTAGC,inactive: -0.00503
7,GGATTCTA,inactive: 0.0678
8,ATTGAGAC,inactive: 0.0804
9,CACTTTAG,inactive: -0.0591
10,GGATGTAA,inactive: 0.299
11,GGGCAGAA,inactive: -0.0763
12,AGACGCAA,inactive: -0.0402
13,AAATAACG,inactive: 0.11
14,GCAGAGGC,inactive: -0.223
15,CGGGCGAG,inactive: -0.163
16,ATCGCCTG,inactive: -0.106
17,AGCGGGTA,inactive: 0.00276
18,TGTGCAAA,inactive: 0.118
19,CATATCTA,inactive: 0.112
20,CCGAAATC,inactive: -0.0715
21,CCCTTACG,inactive: -0.183
22,CGTCTTAC,inactive: -0.0383
23,GGCTCAAC,inactive: -0.144
24,TGTTGGAA,≥ 0.246
25,CATGCCCC,inactive: -0.0767

row,Sequence,PBM E-score
1,AGTACAAT,inactive: 0.292
2,GCATGCGC,inactive: -0.104
3,AGACTTGA,inactive: 0.0829
4,CGTCTCCC,inactive: -0.193
5,AACACGCA,≥ 0.284
6,ACTACAGC,inactive: 0.149
7,AAATATAA,inactive: 0.179
8,CCACGAGG,inactive: -0.0809
9,CTGTCCAC,inactive: -0.015
10,CACTAAAC,inactive: 0.139
11,AAACGGCG,inactive: -0.114
12,AGTGTAAT,inactive: 0.225
13,ACAATTTG,inactive: 0.13
14,GGTGGGGA,inactive: -0.158
15,AAACTGTA,inactive: 0.118
16,GCATAATA,inactive: 0.169
17,AGGACGGA,inactive: -0.127
18,AAGCAGGG,inactive: -0.142
19,AAACCGAG,inactive: -0.0159
20,AGCGTCGC,inactive: -0.178
21,CCGGGCGA,inactive: -0.201
22,ATGTGTTC,inactive: 0.266
23,GCTGCAAC,inactive: -0.0952
24,GCGCAAAC,inactive: -0.0451
25,AGGGCAAA,inactive: -0.0369

row,Sequence,PBM E-score
1,CCGGGCGC,inactive: -0.324
2,CATGAAAG,inactive: 0.0672
3,CATACGGA,inactive: -0.0155
4,AGCGAGGA,inactive: -0.186
5,TAGACGCA,inactive: 0.013
6,ACTTAAAC,inactive: 0.108
7,CAACTACC,inactive: 0.0736
8,CGAGCGCA,inactive: -0.0783
9,CACATGAG,inactive: 0.0472
10,ATGCCCGC,inactive: -0.123
11,GTTAGGAA,inactive: 0.0363
12,TCCGGAAA,inactive: -0.0812
13,TCGACGAA,inactive: 0.0548
14,CGCACCCG,inactive: -0.131
15,GCCAGCAC,inactive: -0.105
16,CGTCTTGC,inactive: -0.0898
17,GATTTAAA,inactive: 0.01
18,AATAAGCT,inactive: 0.0546
19,ACCACCAT,inactive: 0.0399
20,GCCCTTTA,inactive: -0.135
21,GCTTGTTA,active: 0.315
22,CAGCAATA,inactive: 0.0248
23,CCCCAGTC,inactive: -0.198
24,AAGCTAGG,inactive: -0.137
25,GCTATAGC,inactive: -0.191

row,Sequence,PBM E-score
1,GCCATTAC,inactive: 0.0244
2,CAGGCCCC,inactive: -0.293
3,CATTCCGG,inactive: -0.102
4,CCAATATA,inactive: 0.114
5,ATGGCTTA,≥ 0.0303
6,TTCACGAA,inactive: 0.0673
7,ACCTATCG,inactive: 0.0612
8,ACAAGGGG,inactive: 0.177
9,TACTTTAA,inactive: 0.115
10,AGGGCTTC,inactive: -0.137
11,GGCCGATA,inactive: -0.0908
12,ATCAAGAT,inactive: 0.0803
13,ACACTAGA,inactive: 0.0868
14,ATAGTCGA,inactive: 0.0936
15,CGGATATC,inactive: 0.0433
16,AGCATAGG,inactive: -0.0834
17,ACAACTAT,inactive: 0.274
18,CATCTTAC,inactive: 0.16
19,TCTATAAA,inactive: 0.144
20,CCCATGCA,inactive: -0.119
21,ACCGCGAG,inactive: -0.123
22,TTAGTAAA,inactive: 0.174
23,GACTAGCC,inactive: -0.0678
24,ATTGATGA,inactive: 0.104
25,CGGAACCA,inactive: -0.00317

row,Sequence,PBM E-score
1,CGGCCCAA,inactive: -0.235
2,AGATGCCG,inactive: -0.131
3,AAGTAGGC,inactive: -0.107
4,AGGGGATG,inactive: -0.0667
5,ACGATGGA,inactive: 0.0491
6,ACGGTGTG,inactive: 0.0134
7,ACAGAAGA,inactive: 0.101
8,GTACGCTA,inactive: 0.0182
9,CCACAAAG,inactive: -0.171
10,CCGAATAA,inactive: 0.0745
11,ACATTTTG,inactive: 0.246
12,CGCGCAAG,inactive: -0.107
13,TCCTCAGA,inactive: -0.00186
14,CCTCTGAC,inactive: -0.115
15,AAGATCAT,≥ 0.138
16,CTAAGTTA,inactive: 0.0634
17,CGAGCCAC,inactive: -0.165
18,CAACAACC,inactive: 0.238
19,AACATCTG,inactive: 0.22
20,CTGCGAAG,inactive: -0.122
21,AACAGAGC,inactive: 0.0463
22,ATCAGGAA,≥ 0.0539
23,CCGCTGCA,inactive: -0.115
24,ATAGACGC,inactive: 0.0697
25,CTGTGACA,inactive: 0.242

row,Sequence,PBM E-score
1,AGCCGAGA,≥ -0.0955
2,GGCACCCC,inactive: -0.261
3,CAAGGAGG,inactive: -0.0216
4,ATGCCCCA,inactive: -0.165
5,CGACTAGC,inactive: -0.0279
6,AGACACGG,inactive: 0.279
7,CTGTCTTA,inactive: 0.0792
8,AATCTTCT,inactive: -0.0109
9,AGAATCCG,inactive: -0.00411
10,TCGGGAGA,≥ -0.0618
11,TAGTAGGA,inactive: -0.0352
12,AGGTATAC,inactive: 0.174
13,ACCGACAC,inactive: 0.145
14,ACCGGGCC,inactive: -0.228
15,GCTTTGAC,inactive: -0.0287
16,GAATTCGC,inactive: -0.0756
17,ATGCTCCA,inactive: 0.00184
18,AAAAGAGG,inactive: -0.085
19,CGACGCCG,inactive: -0.174
20,CAATCTCG,inactive: 0.0293
21,GACGTATC,inactive: -0.0513
22,AAGGACGA,inactive: -0.0282
23,GCAAACGC,inactive: -0.0897
24,AGGCCTCG,inactive: -0.23
25,AATATTCG,inactive: 0.121

row,Sequence,PBM E-score
1,AGATGACT,inactive: -0.0736
2,CCCTACCC,inactive: -0.125
3,GACGTGCA,inactive: -0.0198
4,AATATTGA,inactive: 0.0813
5,AAGCATTA,inactive: 0.109
6,CAATGCGC,inactive: -0.0419
7,TGGGAAAA,inactive: -0.0544
8,TCTCAGAA,inactive: -0.0046
9,TCAAGTGA,inactive: 0.0578
10,CTACGGGC,inactive: -0.231
11,CAGGTAGC,inactive: -0.0102
12,CCTCATCC,inactive: -0.161
13,ACACCGTA,inactive: 0.139
14,ACTTCGCA,inactive: -0.1
15,CCGTAGCG,inactive: -0.221
16,ATCATCAC,≥ 0.161
17,CTGGGGAA,inactive: -0.227
18,AGAACCTC,inactive: -0.133
19,TAATTGTA,inactive: 0.243
20,GCCTGCAC,inactive: -0.182
21,ACGCGGGA,inactive: -0.141
22,CGCCACGA,inactive: -0.0847
23,GTTACATA,active: 0.365
24,ACTTTGTG,inactive: 0.00955
